These results are taken from PubChem BioAssay AID268 (DTP/NCI, 2004).

The test system of the assay is CD2F1 mice, P1798 lymphosarcoma sc, tumor weight T/C. Briefly: NCI In Vivo Anticancer Drug Screen. Data for tumor model P1798 Lymphosarcoma (subcutaneous) in CD2F1 (CDF1) mice. Particulars: endpoint: mean tumor weight, higher = larger tumour. On the procedure: The antitumor activity of compounds was measured in mice bearing transplantable tumors. Survival or tumor size were measured and the results are expressed as the measurement made in the treated group (T) divided by the measurement made in the vehicle treated control group (C). The tumor model used in this assay is P1798 Lymphosarcoma (subcutaneous) in CD2F1 (CDF1) mice

[1] abbreviates: dose: 5.0 mg/kg/injection, schedule: Q01DX010 (ip), vehicle: saline.
The mark [2] stands for this setting: dose: 62.5 mg/kg/injection, schedule: Q01DX010 (ip), vehicle: saline.
The mark [3] stands for this setting: dose: 25.0 mg/kg/injection, schedule: Q01DX010 (ip), vehicle: saline.
[4] abbreviates: dose: 0.5 mg/kg/injection, schedule: Q01DX010 (ip), vehicle: saline.
Setting [5] is: dose: 8.0 mg/kg/injection, schedule: Q01DX010 (ip), vehicle: saline.
Where [6] appears, read: dose: 31.3 mg/kg/injection, schedule: Q01DX010 (ip), vehicle: saline.
Where [7] appears, read: dose: 50.0 mg/kg/injection, schedule: Q01DX010 (ip), vehicle: saline.

Certain results were filed several times, with different values. Only these are listed. There may be further records. The values listed for one entry repeat one measurement (runs, samples, wells, individuals or studies).

For the molecule `C[C@]12CC[C@H](O)C[C@@H]1CC[C@@H]1[C@@H]2C(=O)C[C@]2(C)C3=CC(=O)O[C@H]3C[C@@H]12`, where the note is “dose: 5.0 mg/kg/injection, schedule: Q01DX010 (sc), vehicle: steriod suspending solution”, the T/C is 57 % of control and 113 % of control.
As to `Cc1nc(N2CC2)nc(N2CC2)c1[N+](=O)[O-]`, under setting [1], the T/C is 39 % of control and 72 % of control.
As for `CC(CCC(C)OS(C)(=O)=O)OS(C)(=O)=O` (stereo not drawn), where the note is “dose: 16.0 mg/kg/injection, schedule: Q01DX010 (ip), vehicle: saline”, the T/C is 28 % of control and 67 % of control.
Regarding `COc1ccc2c(c1OC)C(=O)O[C@@H]2[C@H]1c2c(cc3c(c2OC)OCO3)CCN1C`, the T/C under setting [2] is 61 % of control and 87 % of control.
`OCC1OC(n2cnc3c(Cl)ncnc32)C(O)C1O` (stereo not drawn): the T/C by setting is: under setting [2], 55 % of control and 103 % of control; (dose: 125.0 mg/kg/injection, schedule: Q01DX010 (ip), vehicle: saline) 60 % of control and 86 % of control; (dose: 500.0 mg/kg/injection, schedule: Q01DX010 (ip), vehicle: saline) 70 % of control and 118 % of control.
In the case of `OC(CBr)C(O)C(O)C(O)CBr` (stereo not drawn), the T/C (dose: 100.0 mg/kg/injection, schedule: Q01DX010 (ip), vehicle: saline) is 47 % of control and 87 % of control; the T/C (dose: 200.0 mg/kg/injection, schedule: Q01DX010 (ip), vehicle: saline) was 54 % of control and 89 % of control.
As for `CC[n+]1c(-c2ccccc2)c2cc(N)ccc2c2ccc(N)cc21`, the T/C under setting [1] was 37 % of control and 116 % of control.
Turning to `CCCNc1ncnc2c1cnn2C`, the T/C under setting [3] is 69 % of control and 100 % of control.
Take `CS(=O)(=O)OCCN(CCOS(C)(=O)=O)c1ccc(N=O)cc1`: the T/C under setting [4] was 56 % of control and 90 % of control.
On to `c1ccc(CNc2ncnc3[nH]ncc23)cc1`, for which the T/C under setting [5] is 81 % of control and 118 % of control.
As to `COc1ccc2[nH]c3c(C)c4ccncc4c(C)c3c2c1`, the T/C (dose: 3.13 mg/kg/injection, schedule: Q01DX010 (ip), vehicle: saline) was 36 % of control and 99 % of control.
`CCn1cnc2c(=S)nc[nH]c21`: the T/C was 94 % of control and 163 % of control (dose: 15.6 mg/kg/injection, schedule: Q01DX010 (ip), vehicle: saline); 59 % of control and 94 % of control under setting [6].
Turning to `CN(C)c1ccc(/C=C/c2ccnc3ccccc23)cc1`, the T/C (dose: 10.0 mg/kg/injection, schedule: Q01DX010 (ip), vehicle: saline) is 38 % of control and 81 % of control.
As for `CN(C)c1nc(N(C)C)nc(N(C)C)n1`, under “dose: 37.5 mg/kg/injection, schedule: Q01DX010 (ip), vehicle: saline”, the T/C was 64 % of control and 103 % of control.
For the molecule `C[C@H]1C(=O)O[C@@H]2CCN3CC=C(COC(=O)[C@](C)(O)[C@@]1(C)O)[C@H]23`, the T/C under setting [3] is 74 % of control and 101 % of control.
Take `S=c1nc[nH]c2nc[nH]c12`: the T/C was 49 % of control and 100 % of control (dose: 20.0 mg/kg/injection, schedule: Q01DX010 (ip), vehicle: alkali diluted with saline); 76 % of control and 108 % of control (dose: 40.0 mg/kg/injection, schedule: Q01DX010 (ip), vehicle: alkali diluted with saline).
With `C[C@]12C[C@H](O)[C@H]3[C@@H](CCC4=CC(=O)CC[C@@]43C)[C@@H]1CC[C@@H]2C(=O)CO`, under “dose: 12.5 mg/kg/injection, schedule: Q01DX010 (sc), vehicle: steriod suspending solution”, the T/C is 77 % of control and 106 % of control.
As to `O=C(NCCCCC(NC(=O)OCc1ccccc1)C(=O)NCCCCCCNCCCCCCNC(=O)C(CCCCNC(=O)OCc1ccccc1)NC(=O)OCc1ccccc1)OCc1ccccc1` (stereo not drawn), under setting [7], the T/C is 82 % of control and 120 % of control.
`Nc1ncnc2[nH]ncc12`: the T/C (dose: 6.0 mg/kg/injection, schedule: Q01DX010 (ip), vehicle: saline) is 62 % of control and 90 % of control.
For `C[C@]12CC[C@H](OC3OC(CO)C(O)C(O)C3O)C[C@H]1CC[C@@H]1[C@@H]2CC[C@]2(C)[C@@H](C3=CCOC3=O)CC[C@]12O` (stereo partly drawn), the T/C under setting [4] is 26 % of control and 76 % of control.
Consider `S=P(N1CCOCC1)(N1CC1)N1CC1`, for which the T/C was 62 % of control and 100 % of control (dose: 2.5 mg/kg/injection, schedule: Q01DX010 (ip), vehicle: saline); 56 % of control and 98 % of control under setting [1].
As to `c1ccc(CSc2ncnc3nc[nH]c23)cc1`, under setting [7], the T/C is 60 % of control and 88 % of control.
Consider `CC(=O)OC(C)(C)/C=C/C(=O)[C@](C)(O)[C@H]1[C@H](O)C[C@@]2(C)[C@@H]3CC=C4[C@@H](C[C@H](O)C(=O)C4(C)C)[C@]3(C)C(=O)C[C@]12C`, for which the T/C (dose: 0.4 mg/kg/injection, schedule: Q01DX011 (ip), vehicle: carboxymethylcellulose (CMC)) is 51 % of control and 114 % of control.
`CCCSc1ncnc2nc[nH]c12`: the T/C by setting is: under setting [6], 33 % of control and 117 % of control; under setting [2], 14 % of control and 93 % of control.
Regarding `Nc1nc(SCc2ccccc2)c2[nH]cnc2n1`, the T/C is 88 % of control and 180 % of control under setting [5]; 82 % of control and 169 % of control (dose: 32.0 mg/kg/injection, schedule: Q01DX010 (ip), vehicle: saline).
With `CS(=O)(=O)OCCCCOS(C)(=O)=O`, the T/C was 73 % of control and 105 % of control (dose: 12.5 mg/kg/injection, schedule: Q01DX010 (ip), vehicle: saline); 65 % of control and 94 % of control under setting [3].
Consider `C1CN1c1nc(N2CC2)nc(N2CC2)n1`, for which the T/C was 49 % of control and 100 % of control (dose: 0.13 mg/kg/injection, schedule: Q01DX010 (ip), vehicle: saline); 44 % of control and 90 % of control (dose: 0.25 mg/kg/injection, schedule: Q01DX010 (ip), vehicle: saline).
Take `Clc1ncnc2nc[nH]c12`: where the note is “dose: 60.0 mg/kg/injection, schedule: Q01DX010 (ip), vehicle: saline”, the T/C was 63 % of control and 117 % of control.
